From the supplement of paper PMC2702839
Where a name gives a salt, the structure may show the parent alone. Some of the results follow.

system: Schistosoma mansoni schistosomula; experiment: phenotypic hit in primary schistosomula screen (any phenotype vs DMSO control) (binary (1 = hit, 0 = no phenotype)); higher = active (phenotype induced); conditions: 1 µM; time (d): 7

Row | Compound | phenotypic hit
1 | CC(C)Cc1ccc(C(C)C(=O)O)cc1 (racemic) [(±)-Ibuprofen] | inactive: 0
2 | COc1cnc(NS(=O)(=O)c2ccc(N)cc2)nc1 [sulfameter] | inactive: 0
3 | CC(=O)c1cc2c(cc1O)OC(C)(C)C=C2 [eupatoriochromene] | inactive: 0
4 | CCOC(=O)C1=C[C@]2(CC)CCCN3CCc4c(n1c1ccccc41)[C@@H]32 [vinpocetine] | inactive: 0
5 | CC(=O)OCC(=O)[C@@]1(O)CC[C@H]2[C@@H]3C[C@H](C)C4=CC(=O)C=C[C@]4(C)[C@H]3[C@@H](O)C[C@@]21C [6alpha-methylprednisolone acetate] | inactive: 0
6 | CC(=O)OC1CCC2(C)C3=C(CC[C@H]2C1(C)C)[C@@]1(C)CC[C@@H]([C@@H](C)CCC=C(C)C)[C@]1(C)CC3 (stereo partly drawn) [euphol acetate] | inactive: 0
7 | COc1ccc2c(c1)OCC(Cc1ccc(OC)c(OC(C)=O)c1)C2=O (stereo not drawn) [deoxysappanone b 7,3'-dimethyl ether acetate] | inactive: 0
8 | CC(=O)O[C@H]1C[C@@H](OC(C)=O)C(C)(C)C2C[C@@H](O)[C@]3(C)C(CC[C@@]4(C)[C@H](c5ccoc5)OC(=O)[C@H]5O[C@]543)[C@]21C (stereo partly drawn) [7-deacetylkhivorin] | inactive: 0
9 | CC(CCC(=O)O)[C@H]1CCC2C3CC[C@@H]4CC(=O)CC[C@]4(C)C3C=C[C@@]21C (stereo partly drawn) [chol-11-enic acid] | inactive: 0
10 | OCCOCCN1CCN(C(c2ccccc2)c2ccc(Cl)cc2)CC1 (stereo not drawn) [hydroxyzine pamoate] | inactive: 0
11 | CO[C@H]1[C@H](O)[C@@H](O)[C@H](O)[C@H](O)[C@H]1O [quebrachitol] | inactive: 0
12 | Cc1ccccc1N1C(=O)c2cc(S(N)(=O)=O)c(Cl)cc2NC1C (stereo not drawn) [metolazone] | inactive: 0
13 | CC(C)CCC[C@@H](C)[C@H]1CC[C@H]2[C@@H]3C(=O)C=C4C[C@@H](O)CC[C@]4(C)[C@H]3CC[C@]12C [7-oxocholesterol] | inactive: 0
14 | COc1ccc(C(=O)c2ccc(O)cc2)c(O)c1O [2,3,4'-trihydroxy-4-methoxybenzophenone] | inactive: 0
15 | COc1ccc(-c2coc3c(OC)c(OC)cc(O)c3c2=O)cc1 [isotectorigenin, 7-methyl ether] | inactive: 0
16 | COC(=O)C(C)c1ccc(C(=O)c2cccs2)cc1 (stereo not drawn) [suprofen methyl ester] | inactive: 0
17 | NCCCC(N)C(=O)O (stereo not drawn) [ornithine aketoglutarate] | inactive: 0
18 | CCCCC(CC)CN=C(N)N=C(N)NCCCCCCNC(N)=NC(N)=NCC(CC)CCCC (stereo not drawn) [alexidine hydrochloride] | active: 1
